Results: PubChem BioAssay AID504832 (National Center for Advancing Translational Sciences (NCATS), 2011)
Among all 310,000 compounds or so, about 18,000 (5.8%) were called active. The inconclusive results got no clear call from the source; some entries with a clear call stand among them for comparison. The call rests on the fitted dose curve; in most records, active means well fitted inhibition curve with a large enough effect; inconclusive means small, poorly fitted or top-dose-only effect, or another doubt; inactive means no such curve, though single readings can be large or run the other way. No potency is given beside an inconclusive call; the fits are too rough.

Assay: Primary qHTS for delayed death inhibitors of the malarial parasite plastid, 48 hour incubation
Settings: P. falciparum luciferase growth in erythrocytes; series mostly up to 28.7 µM; activity change, negative = inhibition: at the top concentration
How it was run: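 Growth was read as firefly luciferase luminescence after a 48 h, 37 C, 5% CO2 exposure of compounds to reporter-bearing P. falciparum cultures (0.1% parasitemia, 2% hematocrit final) in Albumax-supplemented RPMI 1640.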
On the % scale 0 is the no-effect control and ±100 the full control effect; potency means the concentration at half of the fitted maximal effect; tags describe the fitted curve by direction and shape.

SMILES	Potency	activity change, negative = inhibition
CCCCn1c(N)c(N(Cc2ccccc2OC)C(=O)COc2ccc(C)cc2)c(=O)[nH]c1=O	inconclusive [inhibitor, partial curve, poor fit]	
O=C(CSc1nc(=O)n(CCCN2CCOCC2)c2c1CCCC2)Nc1ccc(F)cc1F	inconclusive [inhibitor, partial curve, poor fit]	
O=C(CSc1nnc(-c2cccnc2)n1-c1ccc(SC(F)F)cc1)N1CCCc2ccccc21	inconclusive [inhibitor, partial curve, poor fit]	
CCOc1ccc(NCC(=O)c2ccc(C)cc2)cc1		inactive: -8.39%
CCc1nnc(NS(=O)(=O)c2ccc(NC(=O)CCC(=O)OC)cc2)s1		inactive: 0%
CNC(=S)N/N=C/c1cn(CCOc2ccccc2OC)c2ccccc12	inconclusive [inhibitor, partial curve]	
O=C(Cn1c(=O)n(-c2ccccc2)c(=O)c2sccc21)NCc1ccccc1		inactive: -14%
O=C(Cc1cccs1)Nn1c(Cc2cccs2)nc2ccccc2c1=O	inconclusive [inhibitor, partial curve, poor fit]	
O=c1[nH]c(SCc2cccc([N+](=O)[O-])c2)nc2[nH]ncc12		inactive: -20.3%
Cc1ccc(S(=O)(=O)N(C)C)cc1NC(=O)C(C)N(C)CCOc1ccc(Cl)cc1 (stereo not drawn)	inconclusive [inhibitor, partial curve, poor fit]	
CCCC[C@@H]1C[C@H]1[C@@H](NC(=O)c1cccs1)c1ccc(Cl)cc1	inconclusive [inhibitor, single point]	
COc1ccc(N=CC2=C(O)c3ccccc3C2=O)cc1		inactive: 214%
N#CCSc1nnc(COc2cccc3ccccc23)n1-c1ccccc1	inconclusive [inhibitor, single point]	
COc1ccc(C(=O)/C=C/C(=O)N(CC(=O)NC2CCCCC2)Cc2cccs2)c(O)c1	inconclusive [inhibitor, partial curve]	
CCOC(=O)c1cc(C)n(CCc2cnc[nH]2)c1C	active: 13.1 µM	
NC1=C(c2ccc([N+](=O)[O-])cc2)C(=O)CO1		inactive: 2.48%
CCOC(=O)c1c(C)[nH]c(C2=NNC(=Nc3cccc(Cl)c3)SC2)c1C	active: 2.08 µM	
CCn1c(CCc2ccccc2)nc2ccccc21	inconclusive [inhibitor, single point]	
COc1ccc(CCNC(=O)CN(C)S(=O)(=O)c2cccs2)cc1OC		inactive: -2.04%
O=c1oc2ccccc2c(Nc2ccc(O)cc2)c1[N+](=O)[O-]		inactive: 105%
CCOC(=O)C1=C(COC(=O)/C=C/c2cccc(OC)c2)NC(=O)NC1C (stereo not drawn)		inactive: -0.0703%
Cn1c(SCC(=O)N2CCCc3ccccc32)nc2ccccc2c1=O	inconclusive [inhibitor, single point]	
C#CCOCCOCCOCCNc1nc(N2CCN(C(=O)[C@H]([C@@H](C)CC)n3cc([C@@H](N)Cc4ccc(O)cc4)nn3)CC2)nc(N2CCN(C(=O)[C@H]([C@@H](C)CC)n3cc([C@@H](N)Cc4ccc(O)cc4)nn3)CC2)n1	active: 1.85 µM	
CCc1noc(C)c1C(=O)NC1CCCc2c1cnn2-c1cc(C)cc(C)c1 (stereo not drawn)	inconclusive [inhibitor, partial curve, poor fit]	
COc1ccc(CCN(Cc2ccccn2)C(=S)Nc2cccc(SC)c2)cc1OC	inconclusive [inhibitor, partial curve]	

SMILES	Potency	activity change, negative = inhibition
CC1CCc2sc3ncnc(N4CCOCC4)c3c2C1 (stereo not drawn)	inconclusive [inhibitor, single point]	
Cc1ccc(CNC(=O)c2ccc(-n3cccc3)cc2)cc1		inactive: 8.97%
N=C(N)SCc1ccccc1Cl	inconclusive [inhibitor, single point]	
O=S(=O)(c1ccc2oc(=S)[nH]c2c1)N1CCCCC1		inactive: -5.82%
Cc1ccc(-c2noc(CN(C(=O)C(c3ccccc3)c3ccccc3)C(C)C)n2)cc1	inconclusive [inhibitor, partial curve, poor fit]	
CCCn1c(N)c(N(CCOC)C(=O)c2ccc(N3CCCC3=O)cc2)c(=O)[nH]c1=O	inconclusive [inhibitor, single point]	
COC(=O)c1ccc2c(c1)NC(=O)CS2	active: 11.7 µM	
CCN(CC)CC(=O)Nc1cccc(S(=O)(=O)N2CCCC2)c1		inactive: 103%
COc1ccc(Cl)cc1NC(=O)CN(C)CC(=O)Nc1ccccc1-c1ccccc1	inconclusive [inhibitor, single point]	
COc1ccccc1NS(=O)(=O)c1cc2c3c(c1)CC(=O)N3CCC2	active: 9.28 µM	
COc1ccc(CN(C)CC(=O)Nc2ccccc2C(=O)NC2CC2)cc1OC		inactive: -6.11%
O=C(N/N=C/c1cccs1)c1cc(-c2ccc3ccccc3c2)n[nH]1	inconclusive [inhibitor, single point]	
Cc1ccc(C(=O)N2CCN(c3nc4ccccc4n3C)CC2)cc1	inconclusive [inhibitor, partial curve, poor fit]	
O=C(Nc1ccccc1C(=O)N1CCCCCC1)c1ccc(F)cc1		inactive: -8.72%
COc1ccc(/C=N/NC(=O)c2ccc(CSc3nncn3C)cc2)cc1OC	inconclusive [inhibitor, full curve, poor fit]	
CC1Sc2ccc(Cl)cc2-c2nc(N)ncc21 (stereo not drawn)		inactive: 20.4%
CCC(c1nnnn1C(C)(C)C)N1CCN(c2cc(Cl)ccc2C)CC1 (stereo not drawn)	inconclusive [inhibitor, single point]	
O=S(=O)(c1ccc(OCc2ccc(Br)cc2)cc1)N1CCOCC1		inactive: -25.9%
CCCN(CCC)C(=O)CC(c1ccccc1)C1CCOC(C)(C)C1 (stereo not drawn)	inconclusive [inhibitor, partial curve, poor fit]	
Cc1ccc2c(C(=O)CN3CCCCC3)c(C)[nH]c2c1		inactive: -7.64%
CCCCC1=CC2=CC(=O)C(C)(OC(=O)CC)C(=O)C2=CN1c1ccccc1 (stereo not drawn)	active: 10.4 µM	
Cc1ccc2c(c1)c1ccc3c(c1n2C)C(=O)C=CC3=O	inconclusive [inhibitor, partial curve]	
CC(C)(Oc1ccc(Cl)cc1)C(=O)N(Cc1ccccc1)c1ccccn1	inconclusive [inhibitor, single point]	
O=C(CSCc1ccccc1)N1CCN(c2ccc(F)cc2)CC1		inactive: 19.6%
CC(C)(C)N=C1NN=C(c2ccc(S(=O)(=O)N3CCCCC3)cc2)CS1	active: 3.7 µM	

SMILES	Potency	activity change, negative = inhibition
COc1cccc(N2CCN(C(=O)C3CCN(S(=O)(=O)c4ccc5c(c4)oc(=O)n5C)CC3)CC2)c1	inconclusive [inhibitor, partial curve]	
CC(C)C(NC(=O)CCN1C(=O)c2ccccc2C1=O)c1ccccc1 (stereo not drawn)		inactive: -2.71%
COCCCNC(=O)c1ccc2c(c1)ncn2-c1ccccc1OC	inconclusive [inhibitor, single point]	
CC1CC(C)CN(C(=O)C2CCCN(S(=O)(=O)c3cccc4nonc34)C2)C1 (stereo not drawn)	inconclusive [inhibitor, partial curve, poor fit]	
COCCOC1CCN(Cc2cn(Cc3ccccc3)nc2-c2cc3ccccc3o2)CC1	inconclusive [inhibitor, partial curve]	
CCN1CCN(c2ccc(Cl)cc2NC(=O)c2ccc(-n3nc(C)cc3C)cc2)CC1	active: 4.15 µM	
Cc1ccsc1/C=N/NC(=O)Cc1cccn1C		inactive: 25.9%
CC(=O)c1c(C)[nH]c(C(=O)CN2C(=O)NC3(CCCCC3)C2=O)c1C		inactive: 42.8%
Nc1c(-c2ccc(Cl)cc2)cnn1-c1ccccc1		inactive: 9.99% [at 0.00184 µM]
Cc1ccc2nc3c(cc(C(=O)NC4CCCC4)c(=N)n3C3CCCCC3)c(=O)n2c1	inconclusive [inhibitor, partial curve]	
c1ccc(Cn2c(-c3cccs3)nc3nc4ccccc4nc32)cc1	inconclusive [inhibitor, single point]	
CCCCn1c(SCC(=O)N(CC)C2CCS(=O)(=O)C2)nc2cc(S(N)(=O)=O)ccc21 (stereo not drawn)		inactive: -15.5%
CCCn1c(SCC(=O)c2cc(C)n(-c3cc(C)on3)c2C)n[nH]c1=O	inconclusive [inhibitor, single point]	
CC1CCN(C(=O)C2CCCN2S(=O)(=O)c2ccc(Cl)cc2)CC1 (stereo not drawn)		inactive: -4.52%
C=CCn1c(C)cc(/C([O-])=C(/C(=S)Nc2ccc(OC(F)F)cc2)[n+]2ccc(N(C)C)cc2)c1C	inconclusive [inhibitor, partial curve]	
CCCCNC(=O)C1Cc2cc(S(=O)(=O)N3CCCC3)ccc2N1C(C)=O (stereo not drawn)		inactive: 13%
CC1=CC(C)(C)N(C(=O)CSc2nccn2C)c2cc(C)ccc21	inconclusive [inhibitor, single point]	
COc1ccc(/C=C/C(=O)Nc2cccnc2)cc1OC		inactive: 41%
O=C(Nc1ccc(-c2cscn2)cc1)C1CCCN(Cc2ccccc2)C1 (stereo not drawn)	inconclusive [inhibitor, single point]	
CC(C(=O)Nc1ccccc1Cl)N(c1ccccc1)S(C)(=O)=O (stereo not drawn)		inactive: 7.92%
Cc1ccc(SCC(=O)Nc2ccc(-c3nc4ccccc4[nH]3)cc2)cc1	active: 11.7 µM	
Cc1ccccc1C(=O)N(Cc1nc2ccccc2c(=O)[nH]1)C1CCCC1	inconclusive [inhibitor, single point]	
Cc1cccc(NS(=O)(=O)c2ccc(C(=O)NCC(C)(C)N3CCOCC3)cc2)c1C		inactive: -8.66%
